Test results taken from the supplement of paper PMC10670038.
Structures can show the parent of a compound that is named as a salt. ± gives the standard deviation of the averaged measurements. In all, about 2,000 compounds were measured (“relative cell viability vs DMSO, compound alone”: median about 1.1, lowest 2% from about 0.29 on). This is one part of the list.

What follows are compounds tested on TE10 (assay: relative cell viability vs DMSO, compound alone (fraction); TE10 is an esophageal squamous carcinoma line; higher = less cytotoxic). Conditions: 2 µM; 48 h.
Protocol: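 TE10 ESCC cells (1,000/well, 384-well plates) were treated with Selleck bioactive library compounds at 2 uM alone for 48 h. Viability was read by CellTiter-Glo and expressed relative to DMSO wells. Two technical replicates (A, B).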

Structure (SMILES) | relative cell viability
Nc1ccc(C(=O)NCC(=O)O)cc1 [4-Aminohippuric Acid] | 1.15 ± 0.05
COc1ccc(NS(=O)(=O)c2ccc(N)cc2)nn1 [Sulfamethoxypyridazine] | 1.131 ± 0.0024
CCCC(=O)O[C@]1(C(=O)COC(C)=O)CC[C@H]2[C@@H]3C[C@H](F)C4=CC(=O)C=C[C@]4(C)[C@@]3(F)[C@@H](O)C[C@@]21C [Difluprednate] | 0.948 ± 0.066
CN(NC(=O)CC(=O)NN(C)C(=S)c1ccccc1)C(=S)c1ccccc1 [Elesclomol (STA-4783)] | 0.181 ± 0.013
CO[C@@H]1[C@@H](OC(N)=O)[C@@H](O)[C@H](Oc2ccc3c(O)c(NC(=O)c4ccc(O)c(CC=C(C)C)c4)c(=O)oc3c2C)OC1(C)C [Novobiocin Sodium] | 0.907 ± 0.039
O=Nc1c(-c2c(O)[nH]c3cc(Br)ccc23)[nH]c2ccccc12 | 1.16 ± 0.016
CCN1CCN(C(=O)N[C@@H](C(=O)N[C@@H]2C(=O)N3[C@@H]2SC(C)(C)[C@@H]3C(=O)O)c2ccccc2)C(=O)C1=O [Piperacillin Sodium] | 1.13 ± 0.095
CN(C)CCC[C@@]1(c2ccc(F)cc2)OCc2cc(C#N)ccc21 [Escitalopram Oxalate] | 1.15 ± 0.066
CCCC(=O)Nc1ncnc2c1ncn2[C@@H]1O[C@@H]2COP(=O)(O)O[C@H]2[C@H]1OC(=O)CCC [Dibutyryl-cAMP (Bucladesine)] | 1.13 ± 0.012
CC1=CC(=O)NS(=O)(=O)O1 [Acesulfame Potassium] | 1.21 ± 0.061
CN1CCCC(n2nc(Cc3ccc(Cl)cc3)c3ccccc3c2=O)CC1 (stereo not drawn) [Azelastine HCl] | 1.07 ± 0.12
O=C(c1ccc(F)cc1)N1CCCC(c2nc(-c3ccc(F)cc3)no2)C1 (stereo not drawn) | 1.14 ± 0.017
CC(=O)OCOC(=O)CN(CC(=O)OCOC(C)=O)c1ccccc1OCCOc1ccccc1N(CC(=O)OCOC(C)=O)CC(=O)OCOC(C)=O | 0.946 ± 0.031
NC(=O)N/N=C/c1ccc([N+](=O)[O-])o1 [Nitrofural] | 1.02 ± 0.057
O=C(O[C@H]1CN2CCC1CC2)N1CCc2ccccc2[C@@H]1c1ccccc1 [Solifenacin succinate] | 1.103 ± 0.01
CC(C)C[C@H](NC(=O)[C@H](CCc1ccccc1)NC(=O)CN1CCOCC1)C(=O)N[C@@H](Cc1ccccc1)C(=O)N[C@@H](CC(C)C)C(=O)[C@@]1(C)CO1 [Carfilzomib (PR-171)] | 0.0894 ± 0.0027
O=S(=O)(c1ccccc1)c1cnc2c(N3CCNCC3)cccc2c1 | 1.1 ± 0.012
COc1ccc(-n2c(C)c([N+](=O)[O-])c3ccc(O)cc32)cc1 | 1.03 ± 0.012
CN(C)Cc1cccc(N=C(c2ccccc2)c2c(O)[nH]c3cc(C(N)=O)ccc23)c1 | 0.925 ± 0.059

Structure (SMILES) | relative cell viability
O=C(N/N=C/c1ccc(O)c(O)c1)c1cc2ccccc2cc1O [Dynasore] | 1.01 ± 0.079
C=CC[C@@H]1/C=C(\C)C[C@H](C)C[C@H](OC)[C@H]2O[C@@](O)(C(=O)C(=O)N3CCCC[C@H]3C(=O)O[C@H](/C(C)=C/[C@@H]3CC[C@@H](O)[C@H](OC)C3)[C@H](C)[C@@H](O)CC1=O)[C@H](C)C[C@@H]2OC [Tacrolimus (FK506)] | 1.08 ± 0.02
O=C([O-])c1ccccc1O.[Na+] [Sodium salicylate] | 1.16 ± 0.02
COc1ccc2[nH]cc(CCNC(C)=O)c2c1 [Melatonin] | 1.01 ± 0.23
Cc1ccc(C(=O)c2cc(O)c(O)c([N+](=O)[O-])c2)cc1 [Tolcapone] | 0.978 ± 0.019
Cc1cc([N+](=O)[O-])ccc1NS(=O)(=O)c1cc(Cl)ccc1Cl | 0.988 ± 0.0067
COc1ccc(COc2ccc(Cc3cnc(N)nc3N)cc2OC)cc1 | 1.08 ± 0.074
O=C(O)CCNc1cc(N2CCc3ccccc3CC2)nc(-c2ccccn2)n1 | 1.17 ± 0.1
CCN(Cc1ccncc1)C(=O)C(CO)c1ccccc1 (stereo not drawn) [Tropicamide] | 1.09 ± 0.017
CC(=O)O/N=C1\C(=O)N(Cc2cc(Cl)ccc2Cl)c2ccc(Cl)cc21 | 1.04 ± 0.049
Cc1ncc([N+](=O)[O-])n1CCO [Metronidazole] | 1.08 ± 0.032
O=C(Cc1cccc(OC(F)(F)F)c1)Nc1ccc(CCCCc2nnc(NC(=O)Cc3ccccn3)s2)nn1 | 0.753 ± 0.15
CCN(CC)CC#CCOC(=O)C(O)(c1ccccc1)C1CCCCC1 (stereo not drawn) [Oxybutynin chloride] | 1.15 ± 0.056
CCN(CC)CC#CCOC(=O)C(O)(c1ccccc1)C1CCCCC1 (stereo not drawn) [Oxybutynin] | 1 ± 0.089
O=C(CCCN1CC=C(n2c(=O)[nH]c3ccccc32)CC1)c1ccc(F)cc1 [Droperidol] | 1.08 ± 0.044
CCO[C@@H]1OC(=O)C[C@@H]1NC(=O)[C@@H]1CCCN1C(=O)[C@@H](NC(=O)c1ccc(N)c(Cl)c1)C(C)(C)C | 1.11 ± 0.067
CN(C)c1ccc(C(=O)NCCCCCCC(=O)NO)cc1 | 0.627 ± 0.043
C[C@H]1[C@@H](O)O[C@@H]2O[C@@]3(C)CC[C@H]4[C@H](C)CC[C@@H]1[C@@]24OO3 [Dihydroartemisinin (DHA)] | 0.646 ± 0.18
COc1ccc(-c2oc3c(CC=C(C)C)c(O[C@@H]4O[C@H](CO)[C@@H](O)[C@H](O)[C@H]4O)cc(O)c3c(=O)c2O[C@@H]2O[C@@H](C)[C@H](O)[C@@H](O)[C@H]2O)cc1 [Icariin] | 1.06 ± 0.039
